{"source": "PubChem BioAssay AID1159614", "about": "(National Center for Advancing Translational Sciences (NCATS), 2016)", "note": "The whole screen tested about 45,000 compounds, of which about 65 (0.1%) were called active. The call rests on the fitted dose curve; in most records, active means well fitted activation curve with a large enough effect; inconclusive means small, poorly fitted or top-dose-only effect; inactive means no such curve, though single readings can be large or run the other way. Some of the results follow."}
{"biological_target": "Galactocerebrosidase (Homo sapiens) (UniProt P54803)", "sequence (P54803 whole entry, looked up)": "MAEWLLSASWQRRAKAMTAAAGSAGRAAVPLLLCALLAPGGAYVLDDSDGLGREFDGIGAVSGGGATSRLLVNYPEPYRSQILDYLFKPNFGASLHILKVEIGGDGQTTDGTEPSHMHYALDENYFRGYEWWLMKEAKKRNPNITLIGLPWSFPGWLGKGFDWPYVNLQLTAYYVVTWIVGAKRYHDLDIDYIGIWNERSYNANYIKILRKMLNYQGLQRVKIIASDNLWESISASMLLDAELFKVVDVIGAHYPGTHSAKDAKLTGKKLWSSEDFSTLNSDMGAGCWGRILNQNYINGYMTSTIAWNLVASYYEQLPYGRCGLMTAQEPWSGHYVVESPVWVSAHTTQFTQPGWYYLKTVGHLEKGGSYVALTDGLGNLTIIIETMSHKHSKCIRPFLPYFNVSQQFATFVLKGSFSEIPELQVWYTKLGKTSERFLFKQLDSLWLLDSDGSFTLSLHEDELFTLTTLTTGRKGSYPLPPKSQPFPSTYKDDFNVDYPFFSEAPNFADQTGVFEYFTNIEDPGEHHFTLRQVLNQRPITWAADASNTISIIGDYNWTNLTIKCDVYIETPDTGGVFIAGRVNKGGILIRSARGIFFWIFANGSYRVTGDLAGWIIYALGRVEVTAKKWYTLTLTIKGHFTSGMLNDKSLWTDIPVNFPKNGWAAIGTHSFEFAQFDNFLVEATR", "experiment": "A Novel Cell-Based Assay to Identify Small Molecules for B -Galactocerebrosidase; further: 0% is about no effect; nearly all actives have a fitted effect of over 65% in size", "conditions": "145M-Twi-hGALC-G270D cells, HMU-beta-Gal fluorescence, 48 h; series mostly up to 57.5 µM; activation: at the top concentration", "procedure,_shortened": "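qHTS, 1536-well; 145M-Twi-hGALC-G270D cells (WT line also made) in DMEM/F12 + 10% FBS; compound incubation on live cells; HMU-β-gal 0.1 mM final, pH 5.2, NaTC; carbonate stop; fluorescence increase = enhanced residual activity.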"}
{"smiles": "Cc1cc(C)cc(Oc2coc3cc(OCC(=O)NC4CCCCC4)ccc3c2=O)c1", "activation": "inactive: -11.6%"}
{"smiles": "Cc1cc(N)c(-n2cc3c(c2-c2ccc(Br)cc2)c(=O)n(C)c(=O)n3C)cc1C", "activation": "inactive: -15.9%"}
{"smiles": "CC(=O)Nc1ccc(S(=O)(=O)N2CCC(c3nnnn3-c3ccccc3)CC2)cc1", "activation": "inactive: -9.33%"}
{"smiles": "CCOc1ccc(-n2nc(CO)c(C(=O)NCCCc3ccccc3)n2)cc1", "activation": "inactive: -42%"}
{"smiles": "Nc1nonc1-c1nc2ccccc2n1Cc1cccc(Cl)c1", "activation": "inactive: 1.83%"}
{"smiles": "CCOc1ccc(NC(=O)CC2C(=O)N(c3ccc(C)cc3)C(=O)N2CCC2=CCCCC2)cc1", "note": "(centres undefined)", "activation": "inactive: -18.2%"}
{"smiles": "O=C(c1cccn2c(=O)c3cc(Cl)ccc3nc12)N1CCN(c2ccccc2F)CC1", "activation": "inactive: -12.9%"}
{"smiles": "CC(C)c1ccc(NC(=O)c2ccc(F)c(S(=O)(=O)N3CCc4ccccc4C3)c2)cc1", "activation": "inactive: -13.8%"}
{"smiles": "Cc1ccc(CN(C(=O)c2ccccc2F)c2ccccn2)o1", "activation": "inactive: 14.2%"}
{"smiles": "CCOC(=O)c1ccccc1NC(=O)CSc1nc(=O)[nH]c2c1CCC2", "activation": "inactive: -17.3%"}
{"smiles": "Cc1ccccc1CN1C(=O)C2(c3ccccc31)N(c1ccccc1)C(=O)CS2(=O)=O", "note": "(centres undefined)", "activation": "inactive: -24.8%"}
{"smiles": "COc1ccc(CCNC(=O)c2c(O)nc3ccccn3c2=O)cc1", "activation": "inactive: -13.2%"}
{"smiles": "COc1ccc(Cl)cc1NC(=O)Cn1cc(C(=O)c2ccc(C)cc2)c(=O)c2ccc(C)nc21", "activation": "inactive: -22.8%"}
{"smiles": "Cc1ccn2c(=O)c(C(=O)NCCCN3CCCCC3C)c(O)nc2c1", "note": "(centres undefined)", "activation": "inactive: 0.415%"}
{"smiles": "C=CCc1cccc2cc(C(=O)Nc3ccc(F)cc3)c(=O)oc12", "activation": "inactive: -6.92%"}
{"smiles": "COc1ccc2oc(=O)c(C(=O)Nc3ccc(C(=O)O)cc3)cc2c1", "activation": "inactive: -14.2%"}
{"smiles": "Cc1ccc(NC(=O)CCSc2nc(-c3ccco3)cc(C(F)(F)F)n2)cc1F", "activation": "inactive: -13.6%"}
{"smiles": "O=C(COc1ccc(Cl)cc1)Nc1ccc(C(=O)OCc2cc(=O)n3ccsc3n2)cc1", "activation": "inactive: -17.1%"}
{"smiles": "C=Cc1ccc(Cn2c(C)c(CNCCc3ccccc3C)c(C(=O)O)c2C)cc1", "activation": "inactive: -9.22%"}
{"smiles": "FC(F)(F)Oc1ccc2c(c1)NC(c1ccncc1)=NC(c1cccs1)=N2", "activation": "inactive: -27.4%"}
{"smiles": "COc1ccc(OCC(=O)Nc2nnc3n2CCS3)cc1", "activation": "inactive: -19%"}
{"smiles": "CCOC(=O)N1CCN(Cc2nc3cc(NC(=O)c4ccc(OC)cc4)ccc3n2C(C)C)CC1", "activation": "inactive: -3.09%"}
{"smiles": "Nc1ccc(S(=O)(=O)Nc2ccc(Cl)nn2)cc1", "activation": "inactive: -15.4%"}
{"smiles": "O=c1n(Cc2cccc(F)c2)c2ccccc2c2nc(-c3ccccc3)nn12", "activation": "inactive: -1.39%"}
{"smiles": "Oc1ccccc1C=NCc1ccccc1", "activation": "inactive: -20.2%"}
{"smiles": "CN(C)C=NC(=O)c1cc2c(n(-c3ccccc3)c1=O)CC(C)(C)CC2=O", "activation": "inactive: -4.47%"}
{"smiles": "CCCCOc1ccc(C(C)NC(=O)c2cccc(Nc3nc4ccccc4n4nnnc34)c2)cc1", "note": "(centres undefined)", "activation": "inactive: -9.06%"}
{"smiles": "CCOc1ccc(CCNC(=O)CSc2n[nH]c(-c3ccccc3)n2)cc1OCC", "activation": "inactive: -8.35%"}
{"smiles": "Cc1c(CC(=O)N2CCCCC2)c(=O)oc2c(C)c3occ(C(C)(C)C)c3cc12", "activation": "inactive: -3.79%"}
{"smiles": "COc1ccc(Cl)cc1NC(=O)C1CCN(c2nnc(C)c3c(C)n(-c4ccccc4)nc23)CC1", "activation": "inactive: -10%"}
{"smiles": "Cc1ccc(CN2CCSc3ccc(C(=O)NCCc4ccccc4)cc32)cc1", "activation": "inactive: -10.3%"}
{"smiles": "COc1ccc(CN(C(=O)Nc2cccc(Cl)c2)c2ccccn2)cc1OC", "activation": "inactive: -33.6%"}
{"smiles": "Cc1cccc(N2CCN(C(=O)c3ccc(CS(=O)c4cccc(Cl)c4)o3)CC2)c1C", "note": "(centres undefined)", "activation": "inactive: -10.5%"}
{"smiles": "COc1cccc(CSc2nc3n(n2)C(c2cccc(F)c2)C(C(=O)Nc2ccccc2C)=C(C)N3)c1", "note": "(centres undefined)", "activation": "inactive: -19.9%"}
{"smiles": "CN(C)c1cc2c(cc1NS(=O)(=O)c1ccccc1)n(C)c(=O)n2C", "activation": "inactive: -20.2%"}
{"smiles": "COc1ccc(Cl)cc1NC(=O)CCS(=O)(=O)c1cccc2nonc12", "activation": "inactive: 1.92%"}
{"smiles": "COc1ccc(CNC(=O)CCCN2C(=O)CSc3c2c(C)nn3-c2ccccc2)c(OC)c1", "activation": "inactive: 2.33%"}
{"smiles": "CCSc1nnc2c(n1)OC(c1ccc(C)cc1)N(C(C)=O)c1ccccc1-2", "note": "(centres undefined)", "activation": "inactive: -15.7%"}
{"smiles": "COCCNC(=O)CCC(=O)N1Cc2cccc(OC)c2Oc2ncccc21", "activation": "inactive: -17%"}
{"smiles": "Cc1ccc(-c2[nH]c3ccccc3c2SCCNC(=O)c2ccc(S(=O)(=O)N(C)C)cc2)cc1", "activation": "inactive: -7.87%"}
{"smiles": "Cc1ccc(NC(=O)C(=O)NCC(c2cccnc2)N2CCOCC2)cc1Cl", "note": "(centres undefined)", "activation": "inactive: -12.3%"}
{"smiles": "CCn1cc(S(=O)(=O)c2cccc(Cl)c2)c(=O)c2cc(F)c(N3CCC(C)CC3)cc21", "activation": "inactive: -12.2%"}
{"smiles": "Cc1ccc(-n2nc(C)c3c(C)cc(=O)n(CC(=O)N4CCCc5ccccc54)c32)cc1", "activation": "inactive: 3.76%"}
{"smiles": "Cc1ccc(NC(=O)c2c(C)oc3ncnc(N4CCCCC4)c23)cc1Cl", "activation": "inactive: -13.1%"}
{"smiles": "O=C(Cc1ccc(Cl)cc1)Nc1nnc2n1CCS2", "activation": "inactive: -5.76%"}
{"smiles": "COc1ccc(C)cc1NC(=O)CCc1c(C)nn(-c2ccc(N3CCOCC3)nn2)c1C", "activation": "inactive: -3.44%"}
{"smiles": "COc1cccc(-c2ccc3c(N)c(C(=O)c4ccc(Br)cc4)sc3n2)c1", "activation": "inactive: -11.2%"}
{"smiles": "CCc1ccc(NC(=O)Cn2ccn(Cc3ccccc3OC)c(=O)c2=O)cc1", "activation": "inactive: -3.65%"}
{"smiles": "O=C(O)c1ccccc1NCCc1ccccc1", "activation": "inactive: -13.9%"}
